According to PMC2894074:
Results are given in words; binding and its absence hold for the method and conditions named. Binding seen in cells or lysates may run through a third protein. Some binding calls cover weakened binding; strength is not graded here. For some of these results: Where a sequence is shown, tags or fusion partners need not be part of it.

By UniProt entry, the sequences of proteins in these tests, tags left out.
UniProt Q99873: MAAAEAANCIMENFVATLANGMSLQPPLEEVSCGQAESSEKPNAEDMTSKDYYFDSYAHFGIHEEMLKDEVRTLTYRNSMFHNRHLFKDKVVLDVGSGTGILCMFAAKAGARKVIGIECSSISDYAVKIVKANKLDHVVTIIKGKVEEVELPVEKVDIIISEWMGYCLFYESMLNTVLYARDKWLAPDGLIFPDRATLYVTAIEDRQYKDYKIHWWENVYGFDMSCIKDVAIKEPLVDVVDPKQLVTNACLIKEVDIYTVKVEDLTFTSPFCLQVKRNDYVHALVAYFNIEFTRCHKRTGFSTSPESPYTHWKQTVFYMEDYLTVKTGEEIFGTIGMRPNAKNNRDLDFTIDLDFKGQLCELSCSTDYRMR

What was measured:
[1] = molecular target: BRCA1 (human (endogenous in HeLa)) (UniProt P38398); experiment: co-IP; 2 mg HeLa whole cell protein extract immunoprecipitated with anti-BRCA1 or IgG; washed twice with TNE150 + 0.1% NP-40 and once with TNE50 + 0.1% NP-40; blot with anti-PRMT1
[2] = molecular target: GST-BRCA1 1021–1552 (human) (UniProt P38398); experiment: pull-down; 500 ng GST-BRCA1 constructs on beads rotated with 2 mg HeLa whole cell protein extract in lysis buffer, 4°C overnight; washed twice with TNE150 + 0.1% NP-40 and once with TNE50 + 0.1% NP-40; blot with anti-PRMT1; only the target purified
[3] = molecular target: GST-BRCA1 504–802 (human) (UniProt P38398); experiment: as above
GST-BRCA1 1–500 (human) = GST-BRCA1 1–500 (human) (UniProt P38398); experiment: as above
[4] = molecular target: T1, GST-BRCA1 1501–1861 (human) (UniProt P38398); experiment: as above
T1 sequence: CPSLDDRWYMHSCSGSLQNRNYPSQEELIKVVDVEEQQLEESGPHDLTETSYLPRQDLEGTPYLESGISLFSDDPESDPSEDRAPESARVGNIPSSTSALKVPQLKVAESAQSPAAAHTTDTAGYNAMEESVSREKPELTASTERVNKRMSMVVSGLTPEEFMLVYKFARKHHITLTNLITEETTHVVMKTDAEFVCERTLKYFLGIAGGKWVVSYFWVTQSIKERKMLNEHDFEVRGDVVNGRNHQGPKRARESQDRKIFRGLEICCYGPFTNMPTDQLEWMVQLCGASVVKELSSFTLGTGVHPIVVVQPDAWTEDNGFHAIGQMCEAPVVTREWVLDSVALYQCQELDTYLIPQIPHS

[5] = molecular target: T2, GST-BRCA1 697–1276 (human) (UniProt P38398); experiment: as above
T2 sequence: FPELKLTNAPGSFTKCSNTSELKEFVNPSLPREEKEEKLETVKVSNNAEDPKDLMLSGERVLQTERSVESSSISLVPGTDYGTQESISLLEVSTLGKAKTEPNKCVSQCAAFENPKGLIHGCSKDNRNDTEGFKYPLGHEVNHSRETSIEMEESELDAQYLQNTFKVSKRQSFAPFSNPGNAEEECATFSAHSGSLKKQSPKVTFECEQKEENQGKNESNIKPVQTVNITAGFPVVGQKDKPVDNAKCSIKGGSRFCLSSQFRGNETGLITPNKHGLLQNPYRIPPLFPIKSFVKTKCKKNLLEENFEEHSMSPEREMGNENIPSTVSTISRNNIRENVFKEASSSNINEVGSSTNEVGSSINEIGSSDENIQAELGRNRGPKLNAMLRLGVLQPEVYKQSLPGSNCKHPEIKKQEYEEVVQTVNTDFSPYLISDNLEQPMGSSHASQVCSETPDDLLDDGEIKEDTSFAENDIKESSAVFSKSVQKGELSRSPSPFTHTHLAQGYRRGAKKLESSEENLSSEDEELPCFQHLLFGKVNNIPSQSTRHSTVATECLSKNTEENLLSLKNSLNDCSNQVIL

[6] = molecular target: GST-BRCA1 452–1079 (human) (UniProt P38398); experiment: as above

With “PRMT1 (from UniProt Q99873 1-371) (enzyme)” the binding [1] was “binds”, the binding [2] was “no binding” and the binding [3] was “binds”. The binding (GST-BRCA1 1–500 (human)) was “no binding”, the binding [4] was “no binding” and the binding [5] was “no binding”. For the same substance, the binding [6] was “no binding”.
